Source: the RNAGym collection of RNA variant scans (doi:10.1073/pnas.2313332121)
Variants at the floor of the assay are shown more often than the library holds them.

B1: TPR 5TU (parent)
chain: GGAUCUUCUCGAUCUAACAAAAAAGACAAAUCUGCCACAAAGCUUGAGAGCAUCUUCGGAUGCAGAGGCGGCAGCCUUCGGUGGCGCGAUAGCGCCAACGUUCUCAACUAUGACACGCAAAACGCGUGCUCCGUUGAAUGGAGUUUAUCAUG

Variants of: B1
Assay: polymerase ribozyme fitness, log enrichment relative to wild type (log ratio); higher = more active; in vitro selection for triplet polymerase activity
How it was run: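 Mutant libraries of each subunit of a heterodimeric triplet polymerase ribozyme were built by PCR and transcribed. Each library went through one round of in vitro selection in triplicate: annealing with biotinylated primer, partner subunit and triplets, frozen incubation at −7 °C, gel excision of extended constructs, streptavidin-bead capture and RT-PCR. Input and output libraries were Illumina-sequenced; only genotypes with ≥10 input reads and ≥1 read per output were kept. Fitness is log2(genotype enrichment/wild-type enrichment), using inverse-variance-weighted replicate averages.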

GGAUCUUCUCGAUCUAACAAAACAGACAAAUCUGCCACAAAGCUUGAGAGCAUCUACGGAUGCAGAGGCGGCAGCCUUCGGUGGCUCGAUAGCGCCAACGUUCUCAACUAUGACGCGCAAAACGCGUGCUCCGUUGAAUGGAGUUUAUCAUG [A23C U56A G86U A115G] and GGAUCUUCUCGAUCUAACAAAACAGACAAAUCUGCCACAAAGCUUGAGAGCAUCUUCGGAUGCAGAGGCGGCAGCCUUCGGUGACGCGAUAGCGCCAACGUUCUCAACUAUGACACGCAAAACGCGUGCUCCGUUGAAUGGAGUUUAUCAUG [A23C G84A] cannot be ordered by “polymerase ribozyme fitness (log ratio)” value: ≤ -4.2 for the first, ≤ -4.2 for the second.

Going from GGAUCUUCUCGAUCUAACAAAAGAGACAGAUCUGCCACAAAGCUUGAGAGCAUCUUCGGAUGCAGAGGCGGCAGCCUUCGGUGGCGCGAUAGCGGCAACGUUCUCAACUAUGACACGCAAAACGCGUGCUCCGUUGAAUGGAGUUUAUCAUU [A23G A29G C95G G152U] to GGAUCUUCUCGAUCUAACAAAACAGACAAAUCUGCCACAAAGCUUGACAGCAUCUUCGGAUGCAGAGCCGGCAGCCUUCGGUGGCGCGAUAGCGCCAAUGCUCUCAACUAUGACACGCAAAUCGCGUGCUCCGUUGAAUGGAGGUUAUCAUG [A23C G48C G68C C99U U101C A122U U144G], the “polymerase ribozyme fitness (log ratio)” value falls from -3.84 to ≤ -4.2.

GGAUCUUCUCGAUCUAACAAAACAGACAAAUCAGCCACAAGGCUUGAGAGCAUCUUCGGUUGCAGAGGCGGCAGCCUUCGGUGGCGCGAUAGCCCCAACGUUCUCAACUAUGACACGCAAAACGCGUGCUCCGUUGAAUGGAGUUUAUCAUG [A23C U33A A41G A60U G94C] and GGAUCUUCUCGAUCUAACAAAAGAGACUAAUCUGCCACAAAGCUUGAGAGCAUCUACGGAUGCAGAGGCGGCAGCCUUCGGUGGCGCGAUAGCGCCAACGUUCUCAACUAUGAAACGCAAAUCGCGUGCUCCGUUGAAUGGAGUUUAUCAUG [A23G A28U U56A C114A A122U] cannot be ordered by “polymerase ribozyme fitness (log ratio)” value: ≤ -4.2 for the first, ≤ -4.2 for the second.

GGAUCUUCUCGAUCUAACAAAAGAGACCAAUCUGCCACAAAGCUUGCGAGCAUCUUCGGAUGCAGAGGCGGCAGCCUUCGGUGGCGCGAUAGCGCCAACGUUCUCAACUAUGACACGCAAAACGCGUGCUCCGUUGAAUGCAGUUUAUCAUG [A23G A28C A47C G141C] and GGAUCUUCUCGAUCUAACAAAACAGACAAAUCUGCCACAAAGCUUGACAGCAUCUUCGGAUGCAGAGGCGGCAGCCUUCGGUGGAGCGAUAGCGCCAACGUUCUCAACUAUGACACGCAAAACGCGUGCUCCGUCGAAUGGAGUUUAUCGUG [A23C G48C C85A U135C A150G] cannot be ordered by “polymerase ribozyme fitness (log ratio)” value: ≤ -4.2 for the first, ≤ -4.2 for the second.

GGAUCUUCUCGAUCUAACAAAACAGACAAAUCUGCCACAAAGCUUGAGAGCAUCUUCGGAUGCAGAGGCGGCAGCCUUCGUUGGCGCGAUAGCGCUAACGUUCUCAACUAUGACACGCAAAACGCGUGCUCCGUUGAAUGGAGUUUAUCAUG [A23C G81U C96U] and GGAUCUUCUCGAUCUAACAAAACAGACAAAUCUGCCACAAAGCUUGAGAGCAUCUUCUGGUGCAGAGGAGGCAGCCUUCGGUGGCGCGAUAGCGCCAACGUUUUCAACUAUGACACGCAAAACGCGUGCUCCGUUGAAUGGAGUUUAUCAUG [A23C G58U A60G C69A C103U] cannot be ordered by “polymerase ribozyme fitness (log ratio)” value: ≤ -4.2 for the first, ≤ -4.2 for the second.

GGAUCUUCUCGAUCUAACAAAACAGACAAAUCUGCCACAAAGCUUGAGAGCAUCUUCGGAUGCAGAGGCGGCAGCCUUCGGUGGCGCGAUAUCGCCAACGUUCUCAACUAUGACACGCAAAUCGCGUGCUCCGUUGAAUGGAGUUUAUCAUG [A23C G92U A122U] and GGAUCUUCUCGAUCUAACAAAACAGACAAAUCUGCCACAAAGCUUUAGAGCCUCUUCGGAUGCCGAGGCGGCAGCCUUCCGUGGCGCGAUAGCGCCAACGUUCUCAACUAUGAUACGCAAAACGCGUGCUCCGUUGAAUGGAGUUUAUCAUG [A23C G46U A52C A64C G80C C114U] cannot be ordered by “polymerase ribozyme fitness (log ratio)” value: ≤ -4.2 for the first, ≤ -4.2 for the second.

GGAUCUUCUCGAUCUAACAAAACAGACAAAUCUGCCACAAAUCUUGAGAGCAUCUUCGGAUGCAGAGGCGGCAGCCUUCGGUGGCGCGAUAGCGCCAACGUUCUCAACUAUGACACGCAAAACGCGUGCUCCGUUGUAUGGAGUUUAUCAUG [A23C G42U A137U] and GGAUCUUCUCGAUCUAACAAAACAGACAAAUCGGCCACAAAGCUUGCGAGCAUCUUCGGAUGCAGAGGCGGCAGCCUUCGGUGGCGGGAUAGCGCCAACGUUCUCAACUAUGACACGCAAAACGCGUGCUCCGUUGAAUGGAGUUUAUCAUG [A23C U33G A47C C87G] cannot be ordered by “polymerase ribozyme fitness (log ratio)” value: ≤ -4.2 for the first, ≤ -4.2 for the second.

GGAUCUUCUCGAUCUAACAAAACAGACAAAUCUGCCACAAAGCUUGAGAGCAUCUUCGCAUGCAGAGGCGGCAGCCUUGGGUGGCGCGAUAGCGCGAACGUUCUCAACUAUGACACGCAAAACGCGUGCUCGGUUGAAGGGAGUUUAUCAUG [A23C G59C C79G C96G C132G U139G] and GGAUCUUCUCGAUCUAACAAAACAGACAAAUCUGCCACAAAGCCUGAGAGCAUCGUAGGAUGCAGAGGCGGCAGCCUUCGGUGGCGCGAUAGUGCCAACGUUCUCAACUAUGACACGCAAAACGCGUGCUCCGUUGAAUGGAGUAUAUCAUG [A23C U44C U55G C57A C93U U145A] cannot be ordered by “polymerase ribozyme fitness (log ratio)” value: ≤ -4.2 for the first, ≤ -4.2 for the second.

GGAUCUUCUCGAUCUAACAAAACAGACAAAUCUGCCACAAAGCUUGAGAGCAUCUUCGUAUGCAGAGGCGGCAGCCUUCGGUGGCGCGAUAGCGCCAACGUUCUCAACUAUGACACGCAAAACGCGUGCUCCGUUGAAUGGAGAUGAUCAUG [A23C G59U U144A U146G] and GGAUCUUCUCGAUCUAACAAAACAGACAAAUCCGCCACAAAGCUUGAGAGCAUCUUCGGAUGCAGAGGCGGCAGCCUUCGGUGGCGCGAUAGCGCCAACGUUCUGAACUAUGACACGCAAAACGCGUGCUCCGUUGAAUGGAGCUUAUCAUG [A23C U33C C105G U144C] cannot be ordered by “polymerase ribozyme fitness (log ratio)” value: ≤ -4.2 for the first, ≤ -4.2 for the second.

For GGAUCUUCUCGAUCUAACAAAACAGACAAAUCGGCCACAAAGCUUGAGAGCAUCUUCGGAUGCAGAGGCGGCAGCCUACGGUGGCACGAUAGCGCCAACGUUCUCAACUAUGACACGCAAAACGCGUGCUCCAUUGAAUGGAGUUUAUCAUG [A23C U33G U78A G86A G133A], the “polymerase ribozyme fitness (log ratio)” value was ≤ -4.2.
